Assay results from PubChem BioAssay AID1963576 (National Center for Advancing Translational Sciences (NCATS), 2024).
Out of some 46,000 compounds screened, about 60 (0.1%) were called active. Another 3% or so got no clear call; they are omitted. The call rests on the fitted dose curve; in most records, active means well fitted inhibition curve with a large enough effect; inconclusive means small, poorly fitted or top-dose-only effect; inactive means no such curve, though single readings can be large or run the other way. The list shows a part of the results.

Test: Primary qHTS assay for Inhibitors of ovarian cancer metastasis using an organotypic tumor microenvironment (TME) model. Further: nearly all actives have a fitted effect of over 65% in size.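 On activity change, negative = inhibition: plate controls were DMSO wells for no effect and tomatine positive control wells for full effect.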
Conditions: SKOV3ip1-GFP adhesion/invasion on 3D omental model, fluorescence; series mostly up to 45.8 µM; activity change, negative = inhibition: at the top concentration
Procedure, shortened: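 qHTS, 4-pt dose (0.36-46 umol/L); SKOV3ip1-GFP, 1,200 cells/well, no FBS; primary omental fibroblast/mesothelial co-culture 48 h pre-grown; 2 h RT + 16 h 37 C; PBS wash, 4% PFA; GFP count 488/509 nm.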

Activity change, negative = inhibition, inactive:
Cc1ccc(-c2nn(C)c(=O)c3ccccc23)cc1S(=O)(=O)NCCCN(C)C 6.88%, COC(=O)c1ccc(-c2nc(-c3ccc(OC)c(OC)c3)no2)cc1 -6.34%, Cc1ccc(-c2onc(C)c2C)cc1S(=O)(=O)Nc1cccc(Cl)c1C -20.7%, Cc1ccc(CCNC(=O)CCn2nc(-c3ccc(Cl)cc3)ccc2=O)cc1 -3.7%, Cc1cc(C)cc(NC(=O)CCc2c(C)nc3c(c2C)c(=O)n(C)c(=O)n3C)c1 -2.9%, CCc1ccc(-n2nc(CO)c(C(=O)NCc3cccnc3)n2)cc1 -0.34%, COc1cc2ncc3c(-c4ccccc4)nn(CC(=O)NC4CCCCC4)c3c2cc1OC -0.0435%, Cc1cn2c(=O)c(S(=O)(=O)Nc3ccc(N4CCOCC4)cc3)c(C)nc2s1 2.86%, Cc1nc(N2CCCC2)ncc1C(=O)NCc1ccc(F)cc1 -2.55%, Cc1ccc2occ(CC(=O)Nc3ccc(Cl)c(C(F)(F)F)c3)c2c1 -6.57%, Cc1cc(N2CCC(C(=O)Nc3ccccc3Cl)CC2)n2nc(C)c(-c3ccc(Cl)cc3)c2n1 4.92%, Fc1cccc(-c2nnn3c2nc(NCc2ccc4c(c2)OCO4)c2ccccc23)c1 -6.06%, CCC(CC)C(=O)Nc1nnc(S(=O)(=O)N2c3ccccc3CC2C)s1 (stereo unspecified) -7.31%, CCOCCCn1c(=N)c(C(=O)NC(C)c2ccccc2)cc2c(=O)n3cccc(C)c3nc21 (stereo unspecified) 24.7%, COc1ccc(C2=C(C)C(N3CCN(c4ccc(OC)cc4)CC3)=NS2(=O)=O)cc1 -3.31%, CCc1ccc(CN(C(=O)Nc2cccc(Cl)c2)c2ccccn2)cc1 -13%, Cc1c(Cl)cccc1NS(=O)(=O)c1ccc(NS(=O)(=O)c2ccc3c(c2)OCCO3)cc1 26.9%, COc1ccc(Cl)cc1NC(=O)c1cnc(N2CCCCC2)c2ccccc12 -9.26%, COc1ccccc1CNC(=O)c1ccc(-n2c(C)cc3c2CCCC3)cc1 2.22%, O=C(NCCS(=O)(=O)c1ccc(C(F)(F)F)cn1)c1ccc(Cl)cc1 -15%, CCCCOC(=O)/C(C#N)=C\c1ccc(-c2ccc(Cl)cc2)o1 1.01%, CCOc1ccc(NC(=O)CCn2cccn2)cc1 -10.1%, CCOC(=O)c1ccccc1NC(=O)N1CC(C)Oc2ccc(C)cc21 (stereo unspecified) 0.229%, CCOc1ccc(NC(=O)C2CCN(S(=O)(=O)c3c(C)noc3/C=C/c3ccco3)CC2)cc1 -16.3%, CC(C)CC(=O)Nc1n[nH]c2c1CN(C(=O)C1CCN(C)CC1)C2(C)C -0.941%, COc1cc(NC(=O)C(=O)Nc2ccc3nc4n(c(=O)c3c2)CCCCC4)cc(OC)c1OC -28.2%, Cc1ccc(-c2nc3ccccn3c2Nc2ccc3c(c2)OCCO3)o1 -5.79%, O=C1CN(C(=O)COc2ccc(Cl)cc2)C(c2ccc(F)cc2)c2cc(Cl)ccc2N1 (stereo unspecified) -3.8%, CCOC(=O)N1CCN(C(=O)c2ccc3c(c2)N(Cc2cccc(Cl)c2)C(=O)c2ccccc2S3=O)CC1 (stereo unspecified) 21.3%, CC(=O)c1ccc(C(=O)N(Cc2cccnc2)c2nc3c(C)c(C)ccc3s2)cc1 -2.08%, Cc1ccc(C)c(NC(=O)CN(C)S(=O)(=O)c2ccc3c(c2)CCC(=O)N3)c1 5.31%, Cc1ccccc1C(=O)Nc1nnc2n1CCS2 5.38%, OCc1ccccc1O[C@@H]1O[C@H](CO)[C@H](O)[C@H](O)[C@H]1O -8.58%, CCCS(=O)(=O)c1nc(S(=O)(=O)c2ccc(C)cc2)c(N(C)Cc2ccccc2)s1 6.65%, CCCC(=O)NC(C)c1nc2ccccc2n1Cc1ccccc1 (stereo unspecified) 16%, COc1cccc(-c2ccc3c(N)c(C(=O)Nc4cc(C(F)(F)F)ccc4OC)sc3n2)c1 -12.3%, COc1cc(CNC(=O)CCCCC=CC(C)C)ccc1O -17.5%, Cc1cc(C(=O)N2CCN(c3cccc(C)c3C)CC2)c2c(C)nn(-c3ccccc3)c2n1 -5.69%, Cc1cccc(OCC(=O)Nc2cc(-c3ccccc3F)nn2-c2ccccc2)c1 -4.39%, Cc1c(C(=O)N(C)C)sc2c1c(=O)n(-c1ccc(Cl)cc1)c(=O)n2Cc1ccccc1F -2.39%, COc1ccccc1CNC(=O)CCC1N=C2c3ccccc3N=C(SCC(=O)Nc3ccc(N(C)C)cc3)N2C1=O (stereo unspecified) -29.3%, COc1ccc(S(=O)(=O)N2CCCN(CC(=O)Nc3ccc(OC)cc3OC)CC2)cc1 -5.89%, COCCNc1nc2c(c(=O)n(Cc3cccc(Br)c3)c(=O)n2C)n1C -30%, Cc1nc2nc(SCC(=O)NC3CCCCC3)nn2c(C)c1Cc1ccccc1Cl -6.13%

outcome, inactive:
CCc1ccc(C(=O)NC2=NC(c3cc(OC)ccc3OC)CC(=O)N2)cc1 (stereo unspecified), Cc1nc2ccc(S(=O)(=O)NC(C(=O)N3CCN(c4cccc(Cl)c4)CC3)C(C)C)cc2s1 (stereo unspecified), COc1ccc(N2C(=O)CCSC23C(=O)N(Cc2ccc(F)cc2)c2ccccc23)cc1 (stereo unspecified), O=C(c1ccc2c(c1)N(Cc1ccc(Cl)cc1)C(=O)c1ccccc1S2(=O)=O)N1CCN(Cc2ccccc2)CC1, CC1CCN(S(=O)(=O)c2cc(C(=O)NCc3ccccc3)n(C)c2)CC1, COCCNC(=O)c1cnn(-c2cccc(C)c2)c1-n1cccc1, COc1ccc(C(=O)NNc2ncnc3c2cnn3-c2ccc(C)cc2C)cc1, CN(C(=O)c1ccc2c(c1)N(Cc1ccc(F)cc1)C(=O)c1ccccc1S2(=O)=O)C1CCCCC1, CCOC(=O)Cn1c(=O)oc2cc(S(=O)(=O)NC(C)c3ccccc3)ccc21 (stereo unspecified), O=C(c1ccccc1F)N1c2nc(-c3ccco3)nn2C2(CCCCC2)[C@@H]2CCCC[C@@H]21, O=C(Nc1ccc(Br)cc1)C1CCN(c2ncccn2)CC1, CCOC(=O)c1cc(-c2ccc(OC)cc2)n(CCC(=O)NCc2ccc(OC)cc2)c1C, CC(C)NC(=O)N1CCN(S(=O)(=O)c2ccc3c(ccn3C)c2)CC1, Cc1ccc(C(=O)c2cn(CC(=O)NCc3ccccc3Cl)c3nc(C)ccc3c2=O)cc1, CCOC(=O)c1sc(NC(=O)C2c3ccccc3Oc3ccccc32)c(C#N)c1C, CCOC(=O)c1c(C)[nH]c(C)c1S(=O)(=O)N1CCCC(C(=O)NCc2cccc(OC)c2)C1 (stereo unspecified), COC(=O)c1ccc2c(c1)N(Cc1ccc(Cl)cc1)C(=O)c1ccccc1S2
